In all, about 2,300 sequences were measured (“median log2 fold change of GCK-ALFA target abundance (FLAG IP / Myc IP barcode read proportion)”: median about 0.095, lowest 2% from about -0.47 on). Some of the results follow.
B1: LC3A_28_1237 (protein)
chain: NAVEKQIKEAKKEVEKAVAEGKEALVTLTVTKDTTEEDVEKIIKAMKEIAELGKTLPALDIIVDVEKGVKQEHIDKLADAAEEIEEKYPNVTVIIALEEE
B2: LC3A_3_1442 (protein)
chain: SEEILERAREVAEEIGLSEEAIEAVLELVRRALEAGEEEEAERLIEVLAESKDVESEEVLEIAEEALRRIEEEGVSMKEAIEEFIEELRVLRLEKEIEEL
B3: LC3A_17_554 (protein)
chain: SEELKEEIKRLLEELEALVEELEKYDPEAAKELRKKLEEAKKALEEGDLEEALKILKEVAEEAAERWDSLEHIDPERMSILSMEAEGLLIEALSLEEKLE
B4: LC3A_3_1788 (protein)
chain: MEAARAALLAALRAAGHSPETIAAVEATAAALIARGYEAAFATFVAEMRRLLDAPDELLLALAQSVLARLETEDVSEEELTAFIREEARLAALESEIEEL
B5: LC3A_28_673 (protein)
chain: SPLEEALEKALKKAKEAAEKGEPVVITIDVPGDATPEEVERLIEALEEIAEILKDVPGSAIIINLDGDLDQEHRDRLIDAADEINEKYPNVTVIVALEEK
B6: LC3A_28_719 (protein)
chain: SMLEKSLKKALEEAKKAAERGEEVVIEIEVPGDATEEDIEKVIETLEEIAEILKDLPSTAIIIDVDGKVKQEHIDKLADHAEEIEKKYPNVTVIIALDEN
B7: LC3A_free_39_2183 (protein)
chain: SSEETKKLKEELLKLAEEEGEETKELAEKLIELIGEELERIKRLLELMKKLKEAGVDLKEALKEALELAEELKKKGKSKEEIAEAVLELMQDKYNLIPID
B8: LC3A_3_1864 (protein)
chain: MEEIKEKILELLKKLGRSEETIKAAEELANALIERGYLEALKTLLEELEKLKDVDDEILLDMFKDILEALKTKNLNEEETIKLIKEEATIALNEHEIEEL
B9: LC3A_28_799 (protein)
chain: SKVKENVDKALEEARAQIAAGEPVFVEINIPKDATKEEIDYVAEAIREIARAAKAAGLPAVDIVINNENNEEAIKKISETEDKLRAEGLPINVVIAIDEP
B10: LC3A_free_8_2506 (protein)
chain: MREEVRRAAVEGLDRLEEELVAKAKELGLSRLDILELELEIGSVIAEIHSLDDASPEEILAATREGLDRVIALAAELSPELAALARRLGAEILAELEALL
B11: LC3A_3_1509 (protein)
chain: MEELLEEARELLEKFGASEEVIEKFLEALRLLLERGYEEAAKTLIELLKKGKDWSNEVLLAFAEDVLELLETKDLSEEELIEEIKKIFEIADNDQEIEEL
B12: LC3A_28_1024 (protein)
chain: SKAEKLVEEARKKAEEQKAKGEPIYIEISVDGSTTLEDAKLIVEGIEEIAEEFKDEKGVAILIDVSASVSQEVIDLLAKGAEEIEKKYPNVSVIIALEER
B13: LC3A_free_8_2457 (protein)
chain: DKDKLVTAISKLYDEFEEKVKKEMEKLGLSQSDINYISVLIGEAEMAVRDTAIDDPEKTLAVAKEEFEKIIEEAKKLSEELAEFVKKLAEEVLKKIEELL
B14: LC3A_free_39_2236 (protein)
chain: SEEEIEKLIKEIAEEGGVDYNYVKEKMEEIQKIGGLSEEQMLELVKELLKAVKEGADAKEILDEILKLTKELKEKGLSPEEILEELLEKIRDYRNLVPLD
B15: LC3A_3_1577 (protein)
chain: SEARIAEAEARLRAAGLSEEVIARAREVLEALLARGDEETAELVVEGLLELADAPTELLLAALDEVLAVARDESLTPEERLARVREILATAKAEAEIIEL
B16: LC3A_45_1999 (protein)
chain: MWRITVDLLGPKEKVEKAVKLILEKVEEFSKETGIKIEVDEEKAKKSFEASKDEEEVFVEIEITIDGNKEDADALVQRLDEVLEEVGPGLASIISVEEIE
B17: LC3A_28_875 (protein)
chain: SAVDARLAAVRAEGEAQAAEGEDIVLEVTVDASMSLAEAVELMRRVLALARELVAETGLKVTIVVDFDGSQETLDALLALADAAEAEDPKITVIFAISEE
B18: LC3A_free_0_2102 (protein)
chain: MLVVGEVLAVSREPVSEEKEKEFEEKVKELAKEVSEKTGAEVKVEFKRIDGHLVVTITIKAEGVSIEEMDEIVNEVADRVEEIAKELGIEVTTYVSIEEV
B19: LC3A_23_598 (protein)
chain: MYKVELIVSLIGEEEEIKKKAEKLKKEIEKILEKYKDKIISYKINVSFEKLEDGKTYLEIEVEIIIEDDEEVAEEIAEELTDAADKILPDGVISVEVEKL
B20: LC3A_28_745 (protein)
chain: MTIEEQIAEAIEEAKKAAEKGESTVIELTVPGTANEADIDKLIEGMEKIAEILKDVKDQAIIINIDGKLDPEYQKRIGEKAEEIEKKYPNVTVIIALDEE
B21: LC3A_28_1250 (protein)
chain: SAVEEQIAAARAEVEAAVAEGKEALVTLTVTKESDEEDIEKIIEAMYEIAELGKTLPSLTIIVDVERGVKQEHIDKLIDAGEEIEEKYPNVTVIIALEEE
B22: LC3A_6_2059 (protein)
chain: KTVTVVVDILLKEEKLEEGKAKAEEAFKKAVEKLKAKAKELGKKLLNAKLEVGEDGLHLTITFEAEYHPELEKLMSELADEIVEELEPYALASMISIEVN
B23: LC3A_3_1847 (protein)
chain: MEKIKEEALKLLEELGRSEEVKKAVEELLEALEERGYLKAAEKLLEKLKELKDVSDEILLAMLEEILRAVTEENLSEEETIKLIEEEAETAKNENEIEEL
B24: LC3A_147_428 (protein)
chain: VRAEVDIDILVKNAEEEVKEAFKKLEEELKKKGYKVELKIEEEKLENGETYIKVRVTVEAETREEAEEAANLIIDKVEELEEKLKDKIKGYIISVEISEL
B25: LC3A_free_46_2316 (protein)
chain: YIGNISVDIYGVDKEKAEELVKEIEEKIKEIAKKYGLEIEIKVEIEENEDGTTLVFIDITLKGEDKEKLEEAVNEIIKEIDEIAEKYGATAVISYEIEEE
B26: LC3A_free_26_2140 (protein)
chain: SDFVDLGLLDRAADLAEEIAKLLKELGEKYEKLAKKAEEIKKLILTGRLEDLEEALKLAEELIKELEKLKKEDPEKIEKLIKLAKELKELLKEQIEIIKS
B27: LC3A_28_916 (protein)
chain: SAVEEQTKKAIAEAKEAAAKGEPAVVTLNIDHEDVEEAAKLAKEALDKLAEVAKKLKGVTIVVDVPAHNLDAVTAEADKKQEELDKVNPSNHIIVALEEP
B28: LC3A_3_1563 (protein)
chain: MEELIKKLLEELKKAGASEEVLEAVRKAAEALKERGYEEALKVFAEEMRELLHLPDEYLLEFAEEVLEYVETEDLDEEEVIEKIKEIARTVRNDAEIIEL
B29: LC3A_45_2003 (protein)
chain: MWEITVDLLGKPEVVAKAVAAIKAAAAAFSKESGLKVTVDTSEAEAALAAEQDAEEVFATVKIYVDGDQEDADALIQRLEKVEEEVGPELSSIISKEEVP

Target: MAP1LC3A, Q9H492
Assay: median log2 fold change of GCK-ALFA target abundance (FLAG IP / Myc IP barcode read proportion) (log2 ratio); each designed protein is fused to an ALFA-tag nanobody in HEK293 cells to bring the named protein to FLAG-tagged glucokinase (GCK); Myc marks an untargeted standard; higher = target protein stabilised (more abundant)
Details: target protein: 3xFLAG-MCP-GCK-ALFA reporter; HEK293 landing pad (RPLP)
Summary of the method: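 HEK293 landing-pad cells received a recombined binder library fused to the ALFA nanobody and were induced with 2 μg mL^−1 doxycycline, then transfected with a plasmid encoding a FLAG-tagged target and a Myc-tagged standard. Lysates were collected after 48 h for anti-FLAG and anti-Myc immunoprecipitation, and the circular RNA barcodes were reverse transcribed, amplified and sequenced. Target abundance for each binder is the median log2 ratio of FLAG to Myc barcode read proportions. Barcodes had to reach a proportion of at least 10^−7 in both replicates, each binder needed at least 3 barcodes per replicate, a pseudocount of 10^−6 was applied, and the two replicates were pooled.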

| Binder | median log2 fold change |
| --- | --- |
| B1 | 0.0668 |
| B2 | 0.133 |
| B3 | 0.24 |
| B4 | 0.235 |
| B5 | 0.214 |
| B6 | -0.111 |
| B7 | 0.066 |
| B8 | 0.325 |
| B9 | 0.123 |
| B10 | -0.0254 |
| B11 | 0.0569 |
| B12 | 0.019 |
| B13 | 0.413 |
| B14 | 0.299 |
| B15 | 0.268 |
| B16 | 0.113 |
| B17 | -0.064 |
| B18 | -0.0817 |
| B19 | -0.0746 |
| B20 | 0.295 |
| B21 | 0.155 |
| B22 | 0.164 |
| B23 | 0.12 |
| B24 | 0.295 |
| B25 | -0.0193 |
| B26 | 0.381 |
| B27 | 0.256 |
| B28 | 0.0727 |
| B29 | 0.258 |

From the supplement of paper PMC12632987
